From patent US20230159645A1

Molecular target: human TGF-βRII (human), P37173
Experiment: cell-based or functional assay

HEK-BLUE-PD-1 TGF-β Reporter Assay, HEK-Blue TGF-β cells: > 100 | HEK-BLUE-PD-1 TGF-β Reporter Assay, HEK-Blue TGF-β-PD-1+ cells: > 100
B1: Reference PD-1 antibody pembrolizumab analog (antibody, human IgG4 S228P, kappa)
heavy: QVQLVQSGVEVKKPGASVKVSCKASGYTFTNYYMYWVRQAPGQGLEWMGGINPSNGGTNFNEKFKNRVTLTTDSSTTTAYMELKSLQFDDTAVYYCARRDYRFDMGFDYWGQGTTVTVSSASTKGPSVFPLAPCSRSTSESTAALGCLVKDYFPEPVTVSWNSGALTSGVHTFPAVLQSSGLYSLSSVVTVPSSSLGTKTYTCNVDHKPSNTKVDKRV[not shown - human IgG4 Fc with S228P (EU numbers)]
light: EIVLTQSPATLSLSPGERATLSCRASKGVSTSGYSYLHWYQQKPGQAPRLLIYLASYLESGVPARFSGSGSGTDFTLTISSLEPEDFAVYYCQHSRDLPLTFGGGTKVEIKRTVAAPSVFIFPPSDEQLKSGTASVVCLLNNFYPREAKVQWKVDNALQSGNSQESVTEQDSKDSTYSLSSTLTLSKADYEKHKVYACEVTHQGLSSPVTKSFNRGEC
